PubChem BioAssay AID504332 (National Center for Advancing Translational Sciences (NCATS), 2011)
Screen size: about 350,000 compounds; about 31,000 (8.9%) were called active. This list was built around the results that the source calls inconclusive (neither active nor inactive); the mix of calls is not that of the screen. Calls come from the whole dose curve; as a rule, active = well fitted inhibition curve with a large enough effect; inconclusive = small, poorly fitted or top-dose-only effect; inactive = no such curve, though single readings can be large or run the other way. A potency beside an inconclusive call is a rough fit, not a confirmed value.

What follows are molecules tested against Histone-lysine N-methyltransferase EHMT2 (Homo sapiens) (UniProt Q96KQ7) (assay: qHTS Assay for Inhibitors of Histone Lysine Methyltransferase G9a). Details: G9a H3K9 monomethylation, AlphaScreen, 2 h; activity, negative = inhibition: at 59 µM (top of the series) unless noted.
How it was run: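 Compounds were preincubated with 20 nM G9a for 15 min, after which biotinylated H3K9 peptide (500 nM) and SAM (20 uM) started a 2 h room-temperature reaction. Monomethylated product was quantified by antibody-based AlphaScreen chemiluminescence.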
% is set by controls: 0 for no effect and ±100 for the full control effect; potency is the fitted concentration of half-maximal effect; tags give direction and shape of the fitted curve.
Note: nearly all actives have a fitted effect of over 75% in size.

Chain of UniProt Q96KQ7 (Q96KQ7 whole entry, looked up): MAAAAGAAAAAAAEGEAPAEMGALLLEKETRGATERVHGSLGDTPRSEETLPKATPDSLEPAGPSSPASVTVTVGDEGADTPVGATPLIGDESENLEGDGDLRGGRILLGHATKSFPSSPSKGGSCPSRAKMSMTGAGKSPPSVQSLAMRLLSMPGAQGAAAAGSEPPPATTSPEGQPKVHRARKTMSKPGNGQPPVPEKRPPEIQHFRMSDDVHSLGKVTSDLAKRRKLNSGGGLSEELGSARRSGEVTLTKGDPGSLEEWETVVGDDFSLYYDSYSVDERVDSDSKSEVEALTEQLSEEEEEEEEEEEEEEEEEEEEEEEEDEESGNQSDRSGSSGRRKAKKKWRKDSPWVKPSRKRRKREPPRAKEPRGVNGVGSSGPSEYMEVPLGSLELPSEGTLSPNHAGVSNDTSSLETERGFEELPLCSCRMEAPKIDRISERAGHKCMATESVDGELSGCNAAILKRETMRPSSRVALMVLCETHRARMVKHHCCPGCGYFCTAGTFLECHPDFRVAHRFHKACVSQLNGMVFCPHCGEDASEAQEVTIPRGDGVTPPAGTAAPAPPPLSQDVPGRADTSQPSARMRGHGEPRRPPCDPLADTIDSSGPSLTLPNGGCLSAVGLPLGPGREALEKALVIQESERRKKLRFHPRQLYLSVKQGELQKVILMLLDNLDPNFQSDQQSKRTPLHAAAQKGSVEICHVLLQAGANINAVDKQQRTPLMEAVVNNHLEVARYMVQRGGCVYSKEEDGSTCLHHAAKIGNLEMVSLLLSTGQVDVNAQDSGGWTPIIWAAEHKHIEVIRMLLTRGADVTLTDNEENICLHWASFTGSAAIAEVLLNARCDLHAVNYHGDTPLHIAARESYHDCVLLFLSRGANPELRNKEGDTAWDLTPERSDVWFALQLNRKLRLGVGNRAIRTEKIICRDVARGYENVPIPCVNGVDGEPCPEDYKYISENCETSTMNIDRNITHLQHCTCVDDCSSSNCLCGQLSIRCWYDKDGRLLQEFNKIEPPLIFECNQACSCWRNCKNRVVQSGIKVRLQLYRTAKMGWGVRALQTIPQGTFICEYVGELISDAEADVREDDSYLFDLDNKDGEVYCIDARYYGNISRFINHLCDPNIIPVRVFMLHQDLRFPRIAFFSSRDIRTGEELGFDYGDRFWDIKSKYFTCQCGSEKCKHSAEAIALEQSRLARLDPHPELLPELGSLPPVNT

Structure (SMILES) | Potency | activity, negative = inhibition
COc1ccc(CNc2nc(=S)[nH]c3cc(OC)c(OC)cc23)cc1 | active: 10 µM | 
COCc1nnc(NC(=O)C2CC(=O)N(c3ccc(C)c(Cl)c3)C2)s1 (stereo not given) | active: 15.8 µM | 
O=C(NCC1COc2ccccc2O1)c1cccc(S(=O)(=O)N2CCCCC2)c1 (stereo not given) |  | inactive: 9.21% [at 12.7 µM]
Cc1cc(C)n2c(SCC(=O)Nc3ccc(F)cc3F)nnc2n1 | inconclusive: 50.1 µM [inhibitor, partial curve, poor fit] | 
CCOc1ccccc1CN1CCN(Cc2nc3ccccc3s2)CC1CCO (stereo not given) | inconclusive: 79.4 µM [inhibitor, partial curve, poor fit] | 
CCOc1ccc(C(C)=O)cc1COC(=O)C1=COCCO1 | inconclusive: 70.8 µM [inhibitor, partial curve, poor fit] | 
C=CCSC1=C(C#N)C(c2ccccc2OC)CC(=O)N1 (stereo not given) | inconclusive: 28.2 µM [inhibitor, single point] | 
COCCCNC(=O)C1CCC(CNS(=O)(=O)c2ccc(Cl)cc2)CC1 (stereo not given) |  | inactive: 0.189% [at 102 µM]
O=C1OC(N2CCN(c3ccccn3)CC2)c2ccccc21 (stereo not given) | inconclusive: 89.1 µM [inhibitor, single point] | 
CCCCN(C)C1CCN(C(=S)Nc2cccc(OC)c2)CC1 | inconclusive: 44.7 µM [inhibitor, partial curve] | 
Cc1ccc(-c2ccc3nnc(SCC(N)=O)n3n2)cc1 | active: 44.7 µM | 
CCS(=O)(=O)c1ccc2oc(SCC(=O)N3c4ccccc4CC3C)nc2c1 (stereo not given) | inconclusive: 89.1 µM [inhibitor, partial curve, poor fit] | 
O=C(O)CCNS(=O)(=O)c1ccc2c(c1)OCCCO2 | inconclusive: 79.4 µM [inhibitor, single point] | 
NS(=O)(=O)c1ccc(CCNC(=O)c2nc(SCc3ccccc3F)ncc2Cl)cc1 |  | inactive: 4.17%
COc1c(C)cc(C(=O)C2CCCN(C(=O)CCCn3cncn3)C2)cc1C (stereo not given) |  | inactive: -0.898%
Cc1ccc2cccc(NC(=O)c3ccc(-c4ccc(Br)cc4)o3)c2n1 |  | inactive: -8.01%
O=C(CCNC(=O)c1ccc([N+](=O)[O-])cc1)NCC1COc2ccccc2O1 (stereo not given) | active: 50.1 µM | 
CCOC(=O)c1sc(NC(=O)CSCc2c(C)noc2C)nc1C | inconclusive: 35.5 µM [inhibitor, single point] | 
c1ccc2oc(-c3[nH]ncc3CN3CCSCC3)cc2c1 | inconclusive: 44.7 µM [inhibitor, partial curve] | 
C[C@H](NC(=O)c1nc[nH]c1C(=O)OCc1ccccc1)c1ccccc1 |  | inactive: 0.586% [at 0.501 µM]
COc1ccc(NC(=O)CN(C)C(=O)c2ccc3ccccc3c2)cc1 | inconclusive: 56.2 µM [inhibitor, partial curve, poor fit] | 
CC(C)c1ccc(NC(=O)C(c2ccccc2)N2CCOCC2)cc1 (stereo not given) | inconclusive: 79.4 µM [inhibitor, single point] | 
Cc1nnc(SCC(=O)Nc2ccccc2C(=O)NC2CC2)s1 | active: 44.7 µM | 

Structure (SMILES) | Potency | activity, negative = inhibition
OC(CC#CCN1CCOCC1)(c1ccccc1)c1ccccc1 | inconclusive: 89.1 µM [inhibitor, single point] | 
O=C(O)CCNc1ccc(NCCC(=O)O)c2c1C(=O)c1ccccc1C2=O | active: 12.6 µM | 
CCOC(=O)c1c(C)oc2nc(C)nc(N3CCN(c4ccccc4)CC3)c12 | inconclusive: 10 µM [inhibitor, partial curve] | 
COc1ccc(OC)c(N)c1 | active: 31.6 µM | 
Cc1ccc(-c2cc(C(=O)N3CCN(c4ccccc4O)CC3)c3ccccc3n2)o1 | inconclusive: 39.8 µM [inhibitor, partial curve, poor fit] | 
CCOc1ccccc1NC(=O)N1CCCC(c2nc3c(nnn3Cc3ccc(C)cc3)c(=O)[nH]2)C1 (stereo not given) | inconclusive: 50.1 µM [inhibitor, partial curve] | 
Cc1ccc(C)c(S(=O)(=O)N/N=C/c2ccc(N(C)C)cc2)c1 | inconclusive: 31.6 µM [inhibitor, partial curve, poor fit] | 
COc1ccc(CNc2nc(-c3cccnc3)nn2S(C)(=O)=O)cc1 |  | inactive: 4.82% [at 102 µM]
CCc1ccc(NC(=O)CSc2cn(CC(=O)N3CCCC3)c3ccccc23)cc1 | inconclusive: 5.01 µM [inhibitor, partial curve, poor fit] | 
O=C(O)c1ccccc1SCc1cn2cc(Br)ccc2n1 |  | inconclusive: -75% [inhibitor]
O=C(CSc1ccc(-c2ccccn2)nn1)N1CCCc2ccccc21 | inconclusive: 44.7 µM [inhibitor, partial curve, poor fit] | 
O=C(O)CCCNc1cc(N2CCC3(CC2)OCCO3)c2noc3c2c1C(=O)c1ccccc1-3 | inconclusive: 28.2 µM [inhibitor, partial curve, poor fit] | 
COc1ccc(N2CCN(C(=O)CCNS(=O)(=O)c3ccc4c(c3)CCN4C(=O)C3CC3)CC2)cc1 | inconclusive: 12.6 µM [inhibitor, partial curve, poor fit] | 
CN=CC1=C(O)CC(C)(C)CC1=O |  | inactive: -6.74% [at 2.33 µM]
CCN1CCN(C(=O)c2sc3nc(C)nc(N4CCC(C)CC4)c3c2C)CC1 | inconclusive: 10 µM [inhibitor, partial curve, poor fit] | 
CCOC(=O)N1CCN(c2cc(N3CCOCC3)c(F)cc2[N+](=O)[O-])CC1 | inconclusive: 50.1 µM [inhibitor, partial curve] | 
O=C1/C(=C\c2cccnc2)SC(=S)N1C1CCS(=O)(=O)C1 (stereo not given) | inconclusive: 89.1 µM [inhibitor, single point] | 
O=C(c1ccccc1)c1nc2c(n1O)CCCCC2 | active: 56.2 µM | 
O=C(Nc1cc(NC(=O)c2ccccc2Cl)ccc1Cl)c1ccccc1 |  | inactive: 3.51%
O=C(CCCC(=O)Nc1ccc(Br)cc1)N/N=C/c1ccccc1 |  | inactive: 26.9% [at 102 µM]
CCOC(=O)C(=NC(C)C)NNc1cc(Cl)ccc1Cl | active: 8.91 µM | 
O=C(CCNC(=O)c1ccc([N+](=O)[O-])cc1)Nc1ccc(F)cc1F |  | inactive: -19.6% [at 2.33 µM]
